The full ranking holds about 33,000 sequences; the median of “E-score (-0.5 to 0.5)” is about -0.016, and the highest 2% start at about 0.32. This is one part of the list.
What follows are sequences tested against T1, Stp1 (UniProt B3LFK1) (assay: PBM E-score (8-mer binding enrichment) (E-score (-0.5 to 0.5)); higher = stronger / more preferred TF binding; most listed sequences are background and not binding sites). Settings: protein concentration: 200 nM; construct: GST-full length.
T1 sequence: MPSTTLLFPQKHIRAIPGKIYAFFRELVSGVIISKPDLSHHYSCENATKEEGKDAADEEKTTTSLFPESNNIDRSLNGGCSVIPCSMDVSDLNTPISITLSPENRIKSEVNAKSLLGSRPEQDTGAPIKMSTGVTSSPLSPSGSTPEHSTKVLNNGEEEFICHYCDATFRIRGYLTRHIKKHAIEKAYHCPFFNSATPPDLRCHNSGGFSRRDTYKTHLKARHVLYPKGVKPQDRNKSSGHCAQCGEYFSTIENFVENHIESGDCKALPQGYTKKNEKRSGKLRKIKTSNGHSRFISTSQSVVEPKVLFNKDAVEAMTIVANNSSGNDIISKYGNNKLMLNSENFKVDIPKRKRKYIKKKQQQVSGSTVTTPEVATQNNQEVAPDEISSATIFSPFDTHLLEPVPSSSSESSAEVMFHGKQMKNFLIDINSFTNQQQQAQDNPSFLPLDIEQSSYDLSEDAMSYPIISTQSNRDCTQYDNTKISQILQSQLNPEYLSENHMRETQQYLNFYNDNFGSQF
In short: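 Yeast transcription factors carrying a GST tag, as full-length proteins or DNA-binding domains, were produced by PURExpress in vitro transcription/translation. About 100-200 nM protein was applied to universal all-10-mer Agilent arrays, double-stranded by primer extension on fresh or once-stripped slides. Bound protein was detected with fluorescent anti-GST, and scans were normalised with masliner. The Universal PBM Analysis Suite gave each ungapped eight-base word, pooled with its reverse complement, an E-score, a modified Wilcoxon-Mann-Whitney statistic.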

Sequence | PBM E-score
CCAATCCG | 0.0938
AGGGTCAC | -0.249
GAGGGTTA | -0.217
TAAATGTA | 0.119
GGAGAGGA | -0.226
AGCAAATC | 0.0661
AATGTAAC | 0.0488
CCCCGCAC | -0.00823
CCATGGGC | 0.0271
CATTCTCG | 0.128
ACGTCATC | -0.252
GCCGACCC | -0.019
ACTGTTGC | 0.00756
GAGTCAAA | -0.103
AGCTAAGA | -0.0288
TAGTCAGA | -0.106
CGCCCATA | 0.06
GCCGTGTA | 0.473
GGTGTGAC | -0.27
CAACACTC | 0.113
CACATAAA | 0.219
ATTGATAC | 0.236

Sequence | PBM E-score
AATTGCAG | 0.0119
CGTATGTA | 0.0821
TACTCACA | -0.0151
ACGGCACG | 0.484
GAGGGTCC | -0.374
AACTCATG | 0.0773
AGTCCGTG | 0.0264
CCTTGACC | -0.182
GGCGAGAA | 0.18
CTGAACTA | -0.12
CGAGCGAA | 0.126
CGTCGTAG | -0.00851
GTCGAGAC | -0.083
TTGCCCAA | -0.0123
CAGAGCCC | -0.0943
CCGTGGGA | 0.047
AAAGCCGA | -0.0141
CCTACCTA | -0.0899
TAGTTAAA | 0.133
GGCGGTCA | -0.0538
CATGATCC | -0.132
GCGCCGAA | 0.389

Sequence | PBM E-score
ACCCAGCC | -0.393
GACGATCC | -0.168
ACGCGGCG | 0.488
ACCTTTCA | -0.165
AAGTGCCC | 0.079
CTATGGGA | -0.237
GAACACGC | 0.0617
CTGCTGAC | 0.0578
CTAATCTA | 0.078
GAACTACC | -0.295
AGAACAGC | 0.0931
ATCATAGC | 0.0208
AAACCATG | 0.0395
TGACGTCA | 0.166
GTCCTAGA | -0.249
AAATCGGG | -0.125
ATATCTAA | 0.0738
CTCGGAGA | 0.0864
TCTTAAGA | -0.0714
CTGATTGC | -0.0235
GATACAGC | -0.0344
GTCAGATA | -0.172

Sequence | PBM E-score
ACGCTCAC | -0.00321
AAGAGCCT | 0.134
ATGCTAAG | -0.0379
AACGTGTG | 0.041
GCCCAACC | -0.0708
CAGACACG | -0.01
ATATTGTC | 0.15
CTCCAATC | -0.0716
AGTTGCAA | -0.0284
AAGACTCA | -0.161
AAACTTGA | 0.0733
AGTAGCAT | 0.00131
ACGCACTC | -0.0094
GATTGGCC | -0.0765
AAACAGTT | 0.0554
CACACAAC | 0.113
ACTGCCGA | 0.163
GCTACAGC | 0.0254
ACTTTTCT | -0.107
ATGCTGCA | -0.165

From the supplement of paper PMC3334620
